Reference: PubChem BioAssay AID686978 (National Center for Advancing Translational Sciences (NCATS), 2013)
“And” between values parts separate entries of the source, which are not always exact repeats. Identical values can stand only once. The whole screen tested about 420,000 compounds, of which about 64,000 (15%) were called active. Inconclusive results, whose numbers are uncertain, are shown with a selection of clear calls. The call rests on the fitted dose curve; in most records, active means well fitted inhibition curve with a large enough effect; inconclusive means small, poorly fitted or top-dose-only effect; inactive means flat fitted curve, though single readings scatter. Where the call is inconclusive, the potency comes from a doubtful curve fit.

Test: qHTS for Inhibitors of human tyrosyl-DNA phosphodiesterase 1 (TDP1): qHTS in cells in absence of CPT; further: nearly all actives have a fitted effect of over 55% in size
Conditions: DT40 Tdp1-/- hTDP1 cells, no CPT, ATP luminescence, 48 h; activity change, negative = growth inhibition: at 46.2 µM (top of the series) unless noted
Method in brief: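 Seeded 400 DT40-hTDP1 cells/well (vehicle DMSO, no 20 nM CPT); pinned compounds; ≥48 hr at 37 °C; CellTiter-Glo luminescence as viability measure.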
On the % scale 0 is the no-effect control and ±100 the full control effect; potency means the concentration at half of the fitted maximal effect; tags describe the fitted curve by direction and shape.

Q: With `COc1ccc(CNCCC(c2ccc(C)cc2)c2ccco2)cc1` (stereo not given) as the molecule, how does the Potency read?
A: Its Potency is active: 7.31 µM.

Q: With `COc1ccc(/C=C(\C#N)C(=O)OCC(=O)NCc2ccco2)cc1` as the molecule, how does the Potency read?
A: The Potency was “inactive”.

Q: For `Cc1ccc(S(=O)(=O)N2CCCCC2)cc1NC(=O)C1CC1`, which Potency is on record?
A: The Potency was “inactive”.

Q: With `CCOC(=O)c1nc(Nc2ccc(Nc3ccccc3)cc2)c2ccccc2n1` as the molecule, how does the Potency read?
A: Its Potency is active: 7.31 µM.

Q: With `Cc1cccn2c(=O)c3cc(C(=O)N4CC(C)CC(C)C4)sc3nc12` (stereo not given) as the molecule, how does the Potency read?
A: The Potency was inconclusive: 16.4 µM [inhibitor, single point].

Q: For `O=C(Cn1cncn1)NCc1cc(F)ccc1F`, which Potency is on record?
A: Its Potency is “inactive”.

Q: For `O=C(c1ccco1)N1CCC2(CCN(Cc3cc(C(F)(F)F)cc(C(F)(F)F)c3)CC2)CC1`, which Potency is on record?
A: The Potency was inconclusive: 20.6 µM [inhibitor, single point].

Q: Which Potency does the source give for `COc1ccccc1/C=C/c1onc(C)c1S(=O)(=O)N1CCC(C(=O)N2CCC(C)CC2)CC1` here?
A: Its Potency is active: 16.4 µM.

Q: Which Potency does the source give for `O=C(CSc1nnc(-c2cccs2)n1CC1CCCO1)c1cc2ccccc2o1` (stereo not given) here?
A: Its Potency is inconclusive: 29.1 µM [inhibitor, single point].

Q: Which Potency does the source give for `CC1(C(=O)NS(=O)(=O)c2ccc(F)cc2F)CCN1C(=O)CC(c1ccccc1)c1ccccc1` (stereo not given) here?
A: Its Potency is inconclusive: 20.6 µM [inhibitor, single point].

Q: Which Potency does the source give for `COc1cccc(OC)c1C(=O)Nc1ccccc1N1CCCCC1` here?
A: The Potency was inconclusive: 29.1 µM [inhibitor, single point].

Q: Which Potency does the source give for `CSCCC(C(=O)NC1=NCCS1)N1C(=O)c2ccccc2C1=O` (stereo not given) here?
A: Its Potency is “inactive”.

Q: Which Potency does the source give for `CC(C)C(=O)NC(=S)/C=C1/N(C)c2ccccc2C1(C)C` here?
A: The Potency was active: 8.2 µM.

Q: With `Cc1c(O)ccc2c3c(c(=O)oc12)CCCC3` as the molecule, how does the Potency read?
A: Its Potency is inconclusive: 25.9 µM [inhibitor, single point].

Q: Which activity change, negative = growth inhibition does the source give for `CCc1nnc(NC(=O)CSc2nc3c([nH]c4ccccc43)c(=O)n2-c2ccc(F)cc2)s1` here?
A: The activity change, negative = growth inhibition was inconclusive: -32.9% [inhibitor].

Q: With `CC(C)OC(=O)c1c(NC(=O)Cn2cnc([N+](=O)[O-])n2)sc2c1CCCC2` as the molecule, how does the activity change, negative = growth inhibition read?
A: Its activity change, negative = growth inhibition is inconclusive: -30.8% [inhibitor].

Q: For `O=[N+]([O-])c1cc(S(=O)(=O)Nc2cccc(Cl)c2)ccc1N/N=C/c1ccc(N2CCOCC2)cc1`, which Potency is on record?
A: Its Potency is active: 10.3 µM.

Q: Which Potency does the source give for `O=C(Cn1nnc(-c2ccccc2NC(=O)c2ccco2)n1)NC1CCCCC1` here?
A: Its Potency is inconclusive: 16.4 µM [inhibitor, single point].

Q: With `COc1ccccc1NC(=O)Nc1nc(C(N)C2CCCCC2)cs1` (stereo not given) as the molecule, how does the Potency read?
A: The Potency was active: 14.6 µM.

Q: For `COC(=O)c1cccc(C23CC4(C2)[C@H](CN(Cc2cccnc2)[C@@H]4c2ccccc2)C3c2ccccc2)c1` (stereo not given in full), which Potency is on record?
A: Its Potency is inconclusive: 29.1 µM [inhibitor, single point].

Q: With `Cc1c(Cl)cccc1NC(=O)c1cc(S(=O)(=O)N2CCCCC2)cn1C` as the molecule, how does the Potency read?
A: The Potency was inconclusive: 29.1 µM [inhibitor, single point].

Q: Which Potency does the source give for `CC(C)(C)NC(=O)c1oc2ccccc2c1COc1ccccc1` here?
A: Its Potency is active: 13 µM.

Q: With `O=C(CCCOc1ccccc1)N1CCCCC1` as the molecule, how does the Potency read?
A: Its Potency is “inactive”.

Q: With `Cc1cccn2c(=O)cc(COc3ccc(NC(=O)C(C)C)cc3)nc12` as the molecule, how does the Potency read?
A: Its Potency is “inactive”.

Q: Which Potency does the source give for `CCOC(=O)c1ccc(-c2c(-c3ccc4c(c3)OCO4)noc2C)cc1F` here?
A: Its Potency is inconclusive: 20 µM [inhibitor, single point] and inconclusive: 20.6 µM [inhibitor, single point].

Q: For `COc1ccc(-n2c(=O)c(CCC(=O)N3CCC(C)CC3)nc3ccccc32)cc1`, which Potency is on record?
A: Its Potency is inconclusive: 20.6 µM [inhibitor, partial curve, poor fit].

Q: With `CC1CN(C2CCN(C(=O)COc3ccccc3)CC2)CC(C)O1` (stereo not given) as the molecule, how does the Potency read?
A: Its Potency is “inactive”.

Q: Which Potency does the source give for `Nc1ccc2oc(-c3ccccc3Br)nc2c1` here?
A: Its Potency is “inactive”.

Q: For `Cc1nc2ccccc2cc1OCc1ccccc1`, which Potency is on record?
A: The Potency was active: 16.4 µM.

Q: With `O=C(c1csnn1)N1CCC[C@@]2(CCN(c3ccccc3)C2)C1` as the molecule, how does the Potency read?
A: The Potency was inconclusive: 29.1 µM [inhibitor, single point].

Q: For `Cc1ccc(C2=NN(C(=O)CN3C(=O)c4ccccc4S3(=O)=O)C(c3ccco3)C2)cc1` (stereo not given), which Potency is on record?
A: The Potency was inconclusive: 29.1 µM [inhibitor, single point].

Q: For `COc1cc2ncnc(N[C@H](C)c3ccccc3)c2cc1OC`, which Potency is on record?
A: The Potency was active: 23.1 µM.

Q: With `N#CCCn1c(=O)c(-c2ccc(Cl)cc2)nc2cnc(Nc3ccccc3)nc21` as the molecule, how does the Potency read?
A: Its Potency is “inactive”.

Q: With `C[C@H](CO)N1C[C@H](C)[C@@H](CN(C)S(C)(=O)=O)Oc2ccc(NC(=O)CCC(F)(F)F)cc2C1=O` as the molecule, how does the Potency read?
A: The Potency was “inactive”.

Q: Which Potency does the source give for `Cc1ccccc1NC(=O)CSc1nc2ccc(NC(=O)CCc3ccccc3)cc2s1` here?
A: Its Potency is active: 9.2 µM.

Q: For `O=C(O)CSc1nnnn1C1CCCCC1`, which Potency is on record?
A: The Potency was inconclusive: 16.4 µM [inhibitor, single point].

Q: For `Cn1c(=O)c2c(ncn2CC(=O)Nc2nc(-c3ccc(F)c(F)c3)cs2)n(C)c1=O`, which Potency is on record?
A: The Potency was inconclusive: 8.2 µM [inhibitor, partial curve].

Q: Which activity change, negative = growth inhibition does the source give for `Cc1ccc(NC(=S)NC2CCCCC2)cc1S(=O)(=O)N(C)C` here?
A: The activity change, negative = growth inhibition was inconclusive: -33.8% [inhibitor].

Q: With `CCN(C(=O)COC(=O)c1cc(NS(=O)(=O)c2ccc(Cl)c([N+](=O)[O-])c2)ccc1O)C1CCCCC1` as the molecule, how does the Potency read?
A: Its Potency is inconclusive: 29.1 µM [inhibitor, single point].

Q: For `CC(=O)N(CC(=O)Nc1sc(C)c(C)c1C(N)=O)Cc1ccccc1`, which Potency is on record?
A: The Potency was inconclusive: 25.9 µM [inhibitor, single point].

Q: Which Potency does the source give for `Cc1nn(CC(=O)NNC(=S)NCC2CCCO2)c(C)c1Br` (stereo not given) here?
A: Its Potency is “inactive”.

Q: For `COC(=O)c1sccc1S(=O)(=O)N(CC(=O)Nc1ccccc1C)c1ccc(Cl)cc1`, which Potency is on record?
A: The Potency was inconclusive: 29.1 µM [inhibitor, single point].

Q: Which Potency does the source give for `Cc1ccc(CN2CCC[C@]3(N[C@H](c4ccc(C(F)(F)F)cc4)[C@@H]4C(=O)N(C)C(=O)[C@@H]43)C2=O)cc1` here?
A: The Potency was inconclusive: 23.1 µM [inhibitor, single point].

Q: For `CC(C)C(OC(=O)c1cccs1)C(=O)NCc1ccco1` (stereo not given), which Potency is on record?
A: Its Potency is inconclusive: 25.9 µM [inhibitor, single point].

Q: With `CCn1cc(/C=C(\NC(=O)c2ccccc2OC)C(=O)N2CCOCC2)c2ccccc21` as the molecule, how does the Potency read?
A: Its Potency is inconclusive: 20.6 µM [inhibitor, single point].
